Like-named read-outs stand apart in the source and are kept apart here. Each block holds one binder with its values, some of them ahead of it.
Key:
Assay in all cases: SEC-MALS
Full-length human IKK2 = molecular target: T1, Full-length human IKK2 (human, UniProt O14920 1-756)
T1 sequence (looked up): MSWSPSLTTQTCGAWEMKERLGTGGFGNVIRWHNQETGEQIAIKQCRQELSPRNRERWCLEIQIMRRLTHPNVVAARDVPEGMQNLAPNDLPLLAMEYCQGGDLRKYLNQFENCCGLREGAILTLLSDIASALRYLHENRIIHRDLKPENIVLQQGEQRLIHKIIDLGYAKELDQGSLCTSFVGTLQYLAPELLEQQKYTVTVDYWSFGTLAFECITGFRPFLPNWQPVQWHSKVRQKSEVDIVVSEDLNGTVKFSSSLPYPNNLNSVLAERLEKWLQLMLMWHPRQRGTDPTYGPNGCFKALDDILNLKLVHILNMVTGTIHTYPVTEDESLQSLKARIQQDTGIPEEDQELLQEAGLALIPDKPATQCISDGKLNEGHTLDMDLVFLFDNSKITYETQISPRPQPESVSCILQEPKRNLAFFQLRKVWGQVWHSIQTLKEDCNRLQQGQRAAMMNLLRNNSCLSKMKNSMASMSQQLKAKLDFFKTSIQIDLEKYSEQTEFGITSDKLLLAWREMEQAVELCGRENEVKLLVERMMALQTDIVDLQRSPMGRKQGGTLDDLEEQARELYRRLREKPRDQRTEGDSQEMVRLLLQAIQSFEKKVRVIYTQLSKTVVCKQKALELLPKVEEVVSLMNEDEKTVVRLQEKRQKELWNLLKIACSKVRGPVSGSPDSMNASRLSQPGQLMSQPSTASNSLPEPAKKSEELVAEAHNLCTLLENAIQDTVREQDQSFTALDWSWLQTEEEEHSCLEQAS

SEC-MALS [1] = molecular target: the molecule itself
SEC-MALS [2] = molecular target: the molecule itself; remark: listed apart in the source
SEC-MALS [3] = molecular target: the molecule itself; remark: listed apart in the source

binding result (Full-length human IKK2): binds
B1: NEMO^[…] (domain or fragment)
chain: not shown
stoichiometry N (SEC-MALS [1]): 3

B2: NEMO^A162P (natural protein)
chain: not shown
binding result (SEC-MALS [2]): binds

binding result (Full-length human IKK2): binds
B3: NEMO^L227P (natural protein)
chain: not shown
binding result (SEC-MALS [3]): binds

B4: NEMO^R175P (natural protein)
chain: not shown
binding result (SEC-MALS [1]): binds

B5: NEMO^Q157P (natural protein)
chain: not shown
binding result (SEC-MALS [3]): binds

Reference: PMC7994000 (Biochimica et biophysica acta. Proteins and proteomics, 2020)
